Data as given in PubChem BioAssay AID686979 (National Center for Advancing Translational Sciences (NCATS), 2013).
About 50,000 (12%) of roughly 420,000 compounds were called active. The inconclusive results got no clear call from the source; some entries with a clear call stand among them for comparison. Calls come from the whole dose curve; as a rule, active = well fitted inhibition curve with a large enough effect; inconclusive = small, poorly fitted or top-dose-only effect; inactive = flat fitted curve, though single readings scatter. Potencies of inconclusive entries are left out as doubtful fits.

Assay: qHTS for Inhibitors of human tyrosyl-DNA phosphodiesterase 1 (TDP1): qHTS in cells in presence of CPT; note: nearly all actives have a fitted effect of over 55% in size
Details: chicken DT40 Tdp1-/-;hTDP1 cells + 20 nM CPT, ATP luminescence, 48 h; activity change, negative = growth inhibition: at 46.2 µM (top of the series)
Procedure, shortened: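 Chicken DT40 Tdp1-/- cells stably complemented with human TDP1 were seeded at 400 cells/well in medium containing 20 nM camptothecin, exposed to pin-transferred compounds, and grown at 37 °C for at least 48 hr. Viability was read as ATP luminescence.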
% is set by controls: 0 for no effect and ±100 for the full control effect; potency is the fitted concentration of half-maximal effect; tags give direction and shape of the fitted curve.

| SMILES | Potency | activity change, negative = growth inhibition |
| --- | --- | --- |
| CCn1ccc2c(OCC(=O)Nc3ccccc3C(F)(F)F)cccc2c1=O | active: 14.6 µM |  |
| Cc1nn(C)c(C)c1CN(Cc1nc(-c2cc(F)ccc2F)oc1C)C1CC1 | inconclusive [inhibitor, single point] |  |
| CCOC(=O)C1=C(C)NC(C)=C(C(=O)OCC)C1C(=O)OCC(=O)N1CCCCC1C (stereo not given) |  | inactive: 8.75% |
| Cc1onc(-c2ccccc2Cl)c1C(=O)Nc1ccccc1O | inconclusive [inhibitor, single point] |  |
| CCC(C)NC(=O)C1=CCN(S(=O)(=O)c2ccc(C)cc2)CC1 (stereo not given) |  | inactive: 1.9% |
| O=C(NC1(C(F)(F)F)NC(=O)N(CCc2ccccc2)C1=O)c1ccc(Cl)cc1 (stereo not given) | active: 20.6 µM |  |
| CC1=C[C@@H](C)[C@@H](c2ccccc2)OC1=O |  | inactive: 2.98% |
| O=C(COC(=O)CCc1ccc(S(=O)(=O)N2CCOCC2)cc1)NC(=O)NC1CCCCC1 |  | inactive: 14.5% |
| CCOC(=O)C(Sc1cc(-c2ccccc2)nc2ncnn12)C(C)=O (stereo not given) | inconclusive [inhibitor, single point] |  |
| O=C(CSc1cccc2cccnc12)N1CCCC1 | active: 4.11 µM |  |
| Cc1onc(-c2ccccc2Cl)c1C(=O)NC(=S)NCCc1ccccc1 |  | inactive: 1.63% |
| CC1C(=O)N2CCCc3cc(S(=O)(=O)NCc4ccc(F)cc4)cc1c32 (stereo not given) | inconclusive [inhibitor, single point] |  |
| CC(C)CC(=O)Nc1cc2c3c(c1)C(C)C(=O)N3CCC2 (stereo not given) |  | inactive: 29.8% |
| CC(=O)c1ccc(Nc2nc(N3CCOCC3)nc(N3CCOCC3)n2)cc1 | inconclusive [inhibitor, single point] |  |
| COc1ccccc1CNC(=O)CSCc1cnn(-c2ccccc2)c1-n1cccc1 | inconclusive [inhibitor, single point] |  |
| Oc1c(C(c2ccccc2)N2CCC(O)CC2)sc2nc(-c3ccco3)nn12 (stereo not given) |  | inactive: -2.83% |
| COc1ccc(CN(C)C(=O)c2cc(S(=O)(=O)NCc3ccccc3)ccc2C)c(OC)c1 | inconclusive [inhibitor, single point] |  |
| COc1ccc(C(=O)NNC(=O)C2CCCN(C3CC(=O)N(c4ccccc4)C3=O)C2)cc1 (stereo not given) |  | inactive: -0.259% |
| Cc1ccc2nc(CCc3nc4ccc(C)cc4o3)oc2c1 | inconclusive [inhibitor, single point] |  |
| COc1ccc(NC(=O)CNc2ccc(OC)c(S(=O)(=O)N3CCOCC3)c2)cc1 |  | inactive: -0.724% |
| Oc1ccc(/C=N/n2cc(-c3ccccc3)[nH]c2=S)cc1 | inconclusive [inhibitor, partial curve] |  |
| COc1ccc(C2Nc3ccccc3C(=O)N2O)cc1OC (stereo not given) | inconclusive [inhibitor, single point] |  |
| Cc1ccccc1NCCC(=O)Nc1ccc(Cl)cc1 | inconclusive [inhibitor, single point] |  |
| COC(=O)CC1Oc2ccc(Cl)cc2-n2cc(-c3ccccc3)nc21 (stereo not given) | active: 20.6 µM |  |

| SMILES | Potency | activity change, negative = growth inhibition |
| --- | --- | --- |
| O=C(CSc1nnc(CNc2ccccc2)o1)c1ccc2c(c1)OCCO2 | inconclusive [inhibitor, partial curve] |  |
| CN(CC(=O)Nc1cccc(F)c1)C(=O)c1cn(-c2ccccc2)nc1-c1ccc(F)cc1 | inconclusive [inhibitor, single point] |  |
| CCOC(=O)Cc1csc(NC(=O)c2cccs2)n1 |  | inconclusive: -30.2% [inhibitor] |
| Cc1cc(N2CCN(Cc3cn(C)nc3-c3cccc(Cl)c3)CC2)cc(C)n1 | active: 5.17 µM |  |
| Cc1ccc2nc(SCc3nc4ccccc4c(=O)[nH]3)[nH]c2c1 | inconclusive [inhibitor, single point] |  |
| Cc1onc(-c2c(F)cccc2Cl)c1C(=O)OCn1nnc2ccccc2c1=O | inconclusive [inhibitor, single point] |  |
| CSCCC(C(=O)NC1CCCC1)n1c(C2CCCC2)nc2ccccc21 (stereo not given) | inconclusive [inhibitor, single point] |  |
| COc1ccc(-c2coc3c(C(=O)NCc4ccccc4)cccc23)c(C)c1 | inconclusive [inhibitor, single point] |  |
| COC(=O)[C@@]1(Sc2ccc(C)cc2)CC(=O)N(C(=O)c2ccccc2)[C@@H]1c1ccccc1 | inconclusive [inhibitor, single point] |  |
| O=C(NCC1COc2ccccc2O1)c1ccc(NC(=O)c2ccco2)cc1 (stereo not given) | inconclusive [inhibitor, single point] |  |
| COc1ccc(/C=C/C(=O)NCCc2c[nH]c3ccccc23)cc1OC | inconclusive [inhibitor, single point] |  |
| CCCCOc1cccc(C(=O)N(Cc2ccc(C)o2)c2ccccn2)c1 | active: 14.6 µM |  |
| CNC(=O)c1cccc2nc3ccccc3nc12 |  | inactive: 6.51% |
| CC(C)[C@H](CO)N(Cc1cccc(F)c1)c1nc(Nc2cccc(Cl)c2)c2ncn(C(C)C)c2n1 | inconclusive [inhibitor, single point] |  |
| COc1ccc(NS(=O)(=O)c2ccc3[nH]c4c(c3c2)CCCC4)cc1OC | active: 13 µM |  |
| Cn1c(=O)c2[nH]c(CN(Cc3ccccc3)Cc3ccccc3)nc2n(C)c1=O | active: 10.3 µM |  |
| CCOC1=C(C#N)CC2(CC1)c1ccccc1-c1ccccc12 | inconclusive [inhibitor, single point] |  |
| Cc1ccc([N+](=O)[O-])c2c1C(N1CCCC1)C(C)(C)O2 (stereo not given) | inconclusive [inhibitor, single point] |  |
| NC(=O)COC(=O)c1sc2cc(F)ccc2c1Cl |  | inactive: 1.25% |
| NC(=O)c1ccsc1NC(=O)COC(=O)Cc1ccc(F)cc1 |  | inactive: -14.1% |
| CN(C(=O)CN1CCN(c2cc(-c3cccc4oc5ccccc5c34)ncn2)CC1)c1ccccc1 | inconclusive [inhibitor, single point] |  |
| CCn1c(CN2CCCCC2)nc2cc(NC(=O)c3cc(OC)c(OC)c(OC)c3)ccc21 | inconclusive [inhibitor, single point] |  |
| O=C1c2ccccc2C(O)N1CCN1CCOCC1 (stereo not given) |  | inactive: -6.64% |
| CCOC(=O)C(C)Sc1ccc2nnc(CCNS(=O)(=O)c3ccccc3)n2n1 (stereo not given) | inactive |  |

| SMILES | Potency | activity change, negative = growth inhibition |
| --- | --- | --- |
| CC(C)NC(=O)C1C(c2ccc(C(F)(F)F)cc2)=Nc2ccccc2N1C(=O)c1cccc(C(F)(F)F)c1 (stereo not given) | inconclusive [inhibitor, single point] |  |
| CCOC(=O)C(C#N)(Cc1ccc2ccccc2n1)Cc1ccc2ccccc2n1 | inconclusive [inhibitor, single point] |  |
| C/C(Sc1nnc(Cc2ccccc2)o1)=C(\O)c1ccccc1 |  | inconclusive: -35.2% [inhibitor] |
| Cc1ccc(C(=S)N2CCN(Cc3ccccc3)CC2)s1 | inconclusive [inhibitor, single point] |  |
| CCCNC(=O)C[C@@H]1C[C@H]2c3cc(NC(=O)c4ccc5c(c4)OCO5)ccc3O[C@H]2[C@@H](CO)O1 | active: 23.1 µM |  |
| CCOC(=O)c1ccccc1NC(=O)COC(=O)C1CCN(S(=O)(=O)c2ccccc2C(=O)OC)CC1 |  | inactive: -10.8% |
| CC(=O)Nc1nc(C)c(-c2csc(Nc3cccc(C(C)=O)c3)n2)s1 | active: 3.26 µM |  |
| COc1ccc(Nc2c3c(nc4ccc(NC(=O)c5ccc(F)cc5)cc24)CCCC3)cc1OC | inconclusive [inhibitor, single point] |  |
| CC1CN(S(=O)(=O)c2ccc(Cl)c(C(F)(F)F)c2)CC(C)O1 (stereo not given) | inconclusive [inhibitor, single point] |  |
| CC1(C(=O)Nc2cccc3ccccc23)CC1(Br)Br (stereo not given) | inconclusive [inhibitor, single point] |  |
| CN(C(=O)c1ccccc1Cl)c1ccccc1C(=O)NCCc1ccccc1 | inconclusive [inhibitor, single point] |  |
| CN(Cc1ccccc1)C(=O)c1nc(-c2ccc(Cl)cc2)n2c1CCCCC2 | inconclusive [inhibitor, single point] |  |
| Fc1ccc(CSc2nc3ccccc3[nH]2)c2ccccc12 | inconclusive [inhibitor, single point] |  |
| CC(=O)N[C@@H](Cc1c[nH]c2ccccc12)C(=O)OCC(=O)Nc1ccc2c(c1)OCO2 | inconclusive [inhibitor, single point] |  |
| CC(C)Cn1c(N)c(C(=O)COC(=O)[C@@H]2CCCN2C(=O)c2cccs2)c(=O)n(C)c1=O | inconclusive [inhibitor, single point] |  |
| COc1ccc(/C=N/NC(=O)c2nc(Cl)c(Cl)c(N)c2Cl)cc1COc1ccc(F)cc1F | inconclusive [inhibitor, single point] |  |
| CC1CC(C)(C)NC(=S)N1CC(=O)N1CCN(Cc2ccccc2)CC1 (stereo not given) |  | inactive: 1.41% |
| Cc1nonc1NC(=O)CSc1nc(C23CC4CC(CC(C4)C2)C3)nc2ccccc12 | inconclusive [inhibitor, single point] |  |
| Cc1ccc(S(=O)(=O)NNC(=O)C2Cc3c(ccc4ccccc34)O2)cc1 (stereo not given) | inconclusive [inhibitor, partial curve] |  |
| Clc1ccc(CO/N=C/c2c(-c3ccccc3)nc3n2CCS3)c(Cl)c1 | inconclusive [inhibitor, partial curve, poor fit] |  |
| COc1ccc(-n2c(-c3ccc(Br)cc3)c[n+]3c2SC(C)C3)cc1 (stereo not given) | active: 1.64 µM |  |
| Cc1nc2nc(NCc3cccc(Br)c3)[nH]n2c(=O)c1Cc1ccccc1 | inconclusive [inhibitor, single point] |  |
